# The other results are listed elsewhere or left out. Repeats are few or missing, and single values can be far off.
# How the values were obtained:
# Test in all cases: cell viability relative to vehicle (% of vehicle); basal-like triple-negative breast cancer lines; higher = less cytotoxic
# Conditions in all cases: 10 µM; 72 h
# HCC-1143 = test system: HCC-1143
# HCC-1187 = test system: HCC-1187
# MDA-468 = test system: MDA-468
# SUM-149 = test system: SUM-149
# 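Further: stably firefly luciferase-GFP labeled cells in 96-well plates, viability read as luciferase photon flux after d-luciferin addition, treated wells normalized to vehicle wells, single-dose high-throughput screen.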
Compound,cell viability (HCC-1143),cell viability (HCC-1187),cell viability (MDA-468),cell viability (SUM-149)
CNCCCC12CCC(c3ccccc31)c1ccccc12.Cl [Maprotiline HCl],78.8,71.2,101,70.9
C[C@H]1COc2c(N3CCN(C)CC3)c(F)cc3c(=O)c(C(=O)O)cn1c23 [Levofloxacin],82.2,103,88.4,96.7
O=c1[nH]cc(F)c(=O)[nH]1 [Fluorouracil (Adrucil)],74.4,61.5,78.6,80.1
CC1(C)O[C@@H]2C[C@H]3[C@@H]4CCC5=CC(=O)C=C[C@]5(C)[C@H]4[C@@H](O)C[C@]3(C)[C@]2(C(=O)CO)O1 [Desonide],90.7,94.4,131,176
O=C(O)CCNC(=O)c1ccc(/N=N/c2ccc(O)c(C(=O)O)c2)cc1 [Balsalazide],84.9,92.2,110,111
COc1c(C)c2c(c(O)c1CC=C(C)CCC(=O)OCCN1CCOCC1)C(=O)OC2 [Mycophenolate Mofetil],79.8,46.7,61.6,56.3
O=C(Nc1cccc2c(=O)cc(-c3nn[nH]n3)oc12)c1ccc(OCCCCc2ccccc2)cc1 [Pranlukast],74.6,88.4,99.6,99.7

# Reference: the supplement of paper PMC8512760
